Experimental data reported in the supplement of paper PMC6089552.
About 300 (9.4%) of roughly 3,200 compounds showed activity. The entries are a selection whose mix differs from that of the whole data set.

Test system: A673/TR/shEF
Experiment: cell viability (LOESS-normalised, relative to median of negative controls) (log2 ratio); higher = more viable cells (less compound effect), active = hit call of the paper (over 3 MAD below the median)
Conditions: treatment time: 72 h
How it was run: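 Viability of A673/TR/shEF Ewing sarcoma cells was determined by CellTiter-Glo luminescence. The cells, at 1,500 per well in 384-well plates, were grown with or without doxycycline from 24 h before compound addition to switch on EWS-FLI1 shRNA knockdown, then exposed for three days to library compounds at two or more concentrations or to DMSO controls. Signals were LOESS-corrected plate by plate, normalised to the negative-control median and log2-transformed.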

[1] = 0.25 µM, library screen: screen2, EWS-FLI1 expression: high (no doxycycline)
[2] = 0.25 µM, library screen: screen2, EWS-FLI1 expression: low (doxycycline-induced shRNA knockdown)
[3] = 2.5 µM, library screen: screen2, EWS-FLI1 expression: high (no doxycycline)
[4] = 2.5 µM, library screen: screen2, EWS-FLI1 expression: low (doxycycline-induced shRNA knockdown)
[5] = 2.5 µM, library screen: screen1, EWS-FLI1 expression: high (no doxycycline)
[6] = 0.103 µM, library screen: screen3, EWS-FLI1 expression: high (no doxycycline)
[7] = 0.103 µM, library screen: screen3, EWS-FLI1 expression: low (doxycycline-induced shRNA knockdown)
[8] = 0.308 µM, library screen: screen3, EWS-FLI1 expression: high (no doxycycline)
[9] = 0.308 µM, library screen: screen3, EWS-FLI1 expression: low (doxycycline-induced shRNA knockdown)
[10] = 0.926 µM, library screen: screen3, EWS-FLI1 expression: high (no doxycycline)
[11] = 0.926 µM, library screen: screen3, EWS-FLI1 expression: low (doxycycline-induced shRNA knockdown)
[12] = 2.8 µM, library screen: screen3, EWS-FLI1 expression: high (no doxycycline)
[13] = 2.8 µM, library screen: screen3, EWS-FLI1 expression: low (doxycycline-induced shRNA knockdown)
[14] = 8.3 µM, library screen: screen3, EWS-FLI1 expression: high (no doxycycline)
[15] = 8.3 µM, library screen: screen3, EWS-FLI1 expression: low (doxycycline-induced shRNA knockdown)
[16] = 25 µM, library screen: screen3, EWS-FLI1 expression: high (no doxycycline)
[17] = 25 µM, library screen: screen3, EWS-FLI1 expression: low (doxycycline-induced shRNA knockdown)
[18] = 0.25 µM, library screen: screen1, EWS-FLI1 expression: high (no doxycycline)
[19] = 0.25 µM, library screen: screen1, EWS-FLI1 expression: low (doxycycline-induced shRNA knockdown)
[20] = 2.5 µM, library screen: screen1, EWS-FLI1 expression: low (doxycycline-induced shRNA knockdown)

Measured: cell viability (log2)

OC[C@H]1O[C@@H](n2cnc3c(NC4CCCC4)ncnc32)[C@H](O)[C@@H]1O
inactive: [1] 0.202 | [2] 0.0466 | [3] 0.138 | [4] 0.0975

N#CC(=C(N)Sc1ccccc1N)C(C#N)=C(N)Sc1ccccc1N
active: [5] -0.31 | 25 µM, library screen: screen1, EWS-FLI1 expression: high (no doxycycline) -0.459

C[N+](C)(C)CC=O
inactive: [1] 0.236 | [2] 0.0935 | [3] 0.178 | [4] 0.118

CN1CC(=O)N2[C@H](c3ccc4c(c3)OCO4)c3[nH]c4ccccc4c3C[C@@H]2C1=O
inactive: [6] 0.0722 | [7] 0.0676 | [8] 0.0239 | [9] 0.00816 | [10] 0.00685 | [11] 0.0455 | [12] 0.00758 | [13] -0.0093 | [14] 0.0413 | [15] 0.0751 | [16] 0.000365 | [17] 0.0545

C1CCC(C(CC2CCCCN2)C2CCCCC2)CC1 (stereo unspecified)
inactive: [18] 0.0789 | [19] 0.179 | [5] 0.124 | [20] 0.155

CC(C)NCC(O)COc1ccc(CCOCC2CC2)cc1 (stereo unspecified)
inactive: [1] 0.217 | [2] 0.0914 | [3] 0.1 | [4] 0.147

CCc1nc(N)nc(N)c1-c1ccc(Cl)cc1
inactive: 0.025 µM, library screen: screen2, EWS-FLI1 expression: high (no doxycycline) 0.129 | 0.025 µM, library screen: screen2, EWS-FLI1 expression: low (doxycycline-induced shRNA knockdown) 0.0541 | [6] 0.0417 | [7] 0.0477 | [18] 0.0408 | [19] 0.123 | [1] 0.112 | [2] 0.0163 | [8] 0.0837 | [9] 0.135 | [10] 0.0823 | [11] 0.107 | [5] 0.0817 | [20] 0.0354 | [3] 0.122 | [4] 0.129 | [12] 0.0808 | [13] 0.046 | [14] 0.0995 | [15] 0.0615 | 25 µM, library screen: screen2, EWS-FLI1 expression: high (no doxycycline) 0.0523 | 25 µM, library screen: screen2, EWS-FLI1 expression: low (doxycycline-induced shRNA knockdown) -0.0463 | [16] 0.153 | [17] 0.146

CC(=O)[C@@]1(O)CC[C@H]2[C@@H]3C[C@H](C)C4=CC(=O)C=C[C@]4(C)[C@@]3(F)[C@@H](O)C[C@@]21C
inactive: [18] 0.043 | [19] 0.0192 | [5] 0.0466 | [20] -0.346

COc1ccc2c(c1)OC/C(=C/c1ccc(OC)c(OC)c1)C2=O
inactive: [18] -0.0118 | [19] 0.0273 | [5] 0.0915 | [20] 0.0859

COc1cc(C(=O)NCc2ccc(OCCN(C)C)cc2)cc(OC)c1OC
inactive: [18] 0.112 | [19] 0.0356 | [5] 0.157 | [20] 0.166

O=c1cc(CO)occ1O
inactive: [18] 0.0933 | [19] 0.0544 | [5] 0.132 | [20] -0.023

C[C@@H]1CC[C@H]2[C@](C)(CO)[C@@H](O)CC[C@]2(C)[C@@]12CC[C@@](CO)(CCO)O2
inactive: [18] 0.0457 | [19] -0.0603 | [5] 0.0942 | [20] 0.112

CC1(C)C=Cc2c(cc3occ(-c4ccc5c(c4)OCO5)c(=O)c3c2O)O1
active: [18] -0.098
inactive: [19] 0.0822 | [5] 0.0137 | [20] 0.0314

NC1CCN(c2cccc(Cl)n2)CC1
inactive: [1] 0.144 | [2] 0.116 | [3] 0.262 | [4] 0.074

NC(=NCCC[C@H](N)C(=O)O)NO
inactive: [1] 0.166 | [2] 0.0583 | [3] 0.144 | [4] -0.026

O=C(O)COCCN1CCN(C(c2ccccc2)c2ccc(Cl)cc2)CC1 (stereo unspecified)
inactive: [6] 0.0797 | [7] 0.0652 | [8] 0.0829 | [9] 0.0941 | [10] 0.0635 | [11] 0.0408 | [12] 0.0831 | [13] 0.0467 | [14] -0.0492 | [15] 0.0358 | [16] 0.0636 | [17] 0.0303

N[C@@H]1CONC1=O
inactive: [18] 0.0504 | [19] -0.00481 | [1] 0.235 | [2] 0.0868 | [5] 0.125 | [20] 0.106 | [3] 0.132 | [4] 0.0538

COc1ccc2cc([C@H](C)CO)ccc2c1
inactive: [18] 0.0374 | [19] 0.0691 | [5] 0.0774 | [20] 0.0469

O=C(O)C1CCCN(CCC=C(c2ccccc2)c2ccccc2)C1 (stereo unspecified)
inactive: [1] 0.192 | [2] 0.08 | [3] 0.157 | [4] -0.00322

CC(=O)O[C@]1(C(C)=O)CC[C@H]2[C@@H]3C=C(Cl)C4=CC(=O)[C@@H]5C[C@@H]5[C@]4(C)[C@H]3CC[C@@]21C
inactive: [18] 0.0464 | [19] 0.0361 | [1] 0.167 | [2] 0.093 | [5] 0.125 | [20] 0.152 | [3] 0.0713 | [4] 0.00196

Clc1ccc(Cn2c(CN3CCCC3)nc3ccccc32)cc1
inactive: [1] 0.236 | [2] 0.105 | [3] 0.0991 | [4] 0.124

COc1cc2nc(N(C)CCCNC(=O)C3CCCO3)nc(N)c2cc1OC (stereo unspecified)
inactive: [6] 0.0691 | [7] 0.0104 | [8] 0.0888 | [9] -0.0191 | [10] -0.0428 | [11] -0.00583 | [12] 0.0393 | [13] 0.0845 | [14] 0.1 | [15] 0.0506 | [16] 0.0282 | [17] 0.14

O=C(O)/C=C/c1ccc(O)c(O)c1
inactive: [18] 0.082 | [19] -0.0191 | [1] 0.181 | [2] 0.126 | [5] 0.109 | [20] 0.0871 | [3] 0.0522 | [4] 0.0284

CSc1nnc(-c2ccccc2)c(-c2ccccc2)n1
inactive: [18] 0.103 | [19] 0.00324 | [5] 0.0984 | [20] 0.0395

O=C(O)/C(=C/c1c(C(=O)O)[nH]c2cc(Cl)cc(Cl)c12)c1ccccc1
inactive: [1] 0.0854 | [2] 0.0716 | [3] 0.0828 | [4] -0.0111

O=C(O)Cc1nn(Cc2ccc(Br)cc2F)c(=O)c2ccccc12
inactive: [18] 0.105 | [19] 0.114 | [5] 0.175 | [20] 0.176

OCC1OC(n2cnc3c(NC4CCCCC4)ncnc32)C(O)C1O (stereo unspecified)
inactive: [1] 0.119 | [2] 0.0527 | [3] 0.124 | [4] 0.0769

N[C@@H](Cc1c[nH]c2ccc(O)cc12)C(=O)O
inactive: [1] 0.107 | [2] 0.0832 | [3] 0.155 | [4] 0.0628

NC(N)=Nc1ccc(Cl)cc1
inactive: [18] 0.0833 | [19] -0.0263 | [5] 0.0885 | [20] 0.0171

COc1ccc(OC)c(C2NC(=S)NC(C)=C2C(=O)Nc2ccccc2Cl)c1 (stereo unspecified)
inactive: [18] 0.0287 | [19] 0.0702 | [5] 0.112 | [20] 0.148

CNC(=O)CN(CCN(CCN(CC(=O)[O-])CC(=O)NC)CC(=O)[O-])CC(=O)[O-].O.[Gd+3]
inactive: [6] 0.106 | [7] -0.0293 | [8] 0.00861 | [9] 0.114 | [10] 0.0946 | [11] 0.0839 | [12] 0.127 | [13] 0.127 | [14] 0.0841 | [15] 0.116 | [16] 0.0924 | [17] 0.134

CN(Cc1ccccc1)C(=O)C=Cc1ccc([N+](=O)[O-])cc1
inactive: [18] 0.0837 | [19] 0.078 | [5] 0.013 | [20] 0.137

NC[C@@H]1CC[C@@H](N)[C@@H](O[C@H]2[C@H](O)[C@@H](O[C@H]3O[C@H](CO)[C@@H](O)[C@H](N)[C@H]3O)[C@H](N)C[C@@H]2N)O1
inactive: [18] 0.0283 | [19] 0.046 | [5] 0.0406 | [20] 0.091

CC1=C(/C=C/C(C)=C/C=C/C(C)=C/C(=O)O)C(C)(C)CCC1
inactive: [6] 0.00907 | [7] 0.0022 | [18] -0.0184 | [19] 0.115 | [1] 0.173 | [2] 0.0676 | [8] 0.0569 | [9] 0.15 | [10] 0.0149 | [11] 0.135 | [5] -0.0163 | [20] 0.178 | [3] 0.0368 | [4] 0.183 | [12] -0.0527 | [13] 0.116 | [14] -0.0171 | [15] 0.084 | [16] -0.0128 | [17] 0.173

CC(C)=CCC/C(C)=C/C=C/C(C)=C/C=C/C(C)=C/C=C/C=C(C)/C=C/C=C(C)/C=C/C=C(\C)CCC=C(C)C
inactive: [18] 0.149 | [19] 0.105 | [5] 0.156 | [20] 0.123

CC(=O)O[C@@H]1CC2C(C)(C)[C@H](O)C=C[C@]2(C)C2CC[C@@]3(C)[C@H](c4ccoc4)OC(=O)C4OC43[C@@]21C (stereo partly specified)
inactive: [18] 0.000168 | [19] 0.0262 | [5] 0.0677 | [20] 0.0357

NC(=O)c1cc[n+](CC2=C(C(=O)[O-])N3C(=O)[C@@H](NC(=O)[C@@H](c4ccccc4)S(=O)(=O)O)[C@H]3SC2)cc1
inactive: [1] 0.178 | [2] 0.128 | [3] 0.0497 | [4] 0.0859
